Test results from a compilation of properties of binary mixtures (doi:10.1039/c2cc30374d).
The densities may have been worked out from excess volumes.

Assay: xn = mol fraction of the nth substance listed
Conditions: 101 kPa

[N-]=C=S.[NH4+] + CC(=O)[O-].CC[n+]1ccn(C)c1
mass density [kg/m3]
Conditions | 298.15 K | 303.15 K | 308.15 K | 313.15 K | 318.15 K | 323.15 K | 328.15 K | 333.15 K
x1 = 0.02 | 1101.5 | 1098.4 | 1095.4 | 1092.3 | 1089.3 | 1086.3 | 1083.2 | –
x1 = 0.1002 | 1104.5 | – | 1098.3 | 1095.2 | 1092.1 | 1089 | – | –
x1 = 0.1998 | 1107.1 | – | – | 1097.7 | – | 1091.2 | 1087.9 | –
x1 = 0.2514 | 1106.9 | 1103.8 | – | 1097.4 | 1094.2 | 1091 | 1087.7 | 1084.3
x1 = 0.3001 | – | – | 1101 | 1097.9 | 1094.6 | 1091.4 | 1088 | –
x1 = 0.3199 | – | 1104.3 | 1101.1 | 1098 | 1094.7 | 1091.5 | – | 1084.7
x1 = 0.3413 | 1108 | 1104.8 | – | – | 1095.4 | 1092.1 | 1088.8 | 1085.4

[N-]=C=S.[NH4+] + CCOS(=O)(=O)[O-].CC[n+]1ccn(C)c1
mass density [kg/m3]
Conditions | 298.15 K | 303.15 K | 308.15 K | 313.15 K | 318.15 K | 323.15 K | 328.15 K | 333.15 K
x1 = 0.0235 | – | 1232.6 | 1229.2 | 1225.9 | 1222.6 | 1219.3 | 1216 | –
x1 = 0.1553 | 1230.4 | 1227.1 | 1223.9 | 1220.7 | 1217.5 | 1214.3 | 1211.1 | 1207.9
x1 = 0.3025 | – | 1218.8 | – | 1212.6 | 1209.6 | 1206.5 | 1203.5 | –
x1 = 0.4042 | 1216.3 | 1213.2 | – | 1207.1 | 1204.1 | 1201.1 | 1198.2 | –
x1 = 0.5205 | 1212.6 | 1209.5 | 1206.4 | 1203.4 | – | 1197.5 | 1194.6 | 1191.6
x1 = 0.565 | 1212.6 | – | 1206.4 | 1203.4 | – | – | 1194.4 | 1191.5
x1 = 0.5997 | 1212.6 | 1209.3 | 1206.3 | – | 1200.3 | 1197.3 | 1194.3 | –

CC(=O)[O-].CC[n+]1ccn(C)c1 + [N-]=C=S.[NH4+]
x2 = 0
Conditions | mass density [kg/m3]
298.15 K | 1100.8
303.15 K | 1097.8
308.15 K | 1094.8
318.15 K | 1088.7
323.15 K | 1085.7
328.15 K | 1082.7
333.15 K | 1079.7

CCOS(=O)(=O)[O-].CC[n+]1ccn(C)c1 + [N-]=C=S.[NH4+]
x2 = 0
Conditions | mass density [kg/m3]
298.15 K | 1236.5
303.15 K | 1233.1
308.15 K | 1229.7
313.15 K | 1226.4
318.15 K | 1223
323.15 K | 1219.6
328.15 K | 1216.3
333.15 K | 1213
